Blank lines part the entries; values can stand above or below the binder they belong to.
Key:
Recombinant Human IL-1α [1] = molecular target: T1, Recombinant Human IL-1α (human, UniProt P01583 113-271); experiment: capture ELISA: DVD-Ig captured by anti-human Fc, biotinylated antigen titrated; C-terminal VD
T1 construct: Bought recombinant protein; Biotinylated in the capture ELISA; also called hIL-1α; IL-1 alpha
T1 sequence (looked up): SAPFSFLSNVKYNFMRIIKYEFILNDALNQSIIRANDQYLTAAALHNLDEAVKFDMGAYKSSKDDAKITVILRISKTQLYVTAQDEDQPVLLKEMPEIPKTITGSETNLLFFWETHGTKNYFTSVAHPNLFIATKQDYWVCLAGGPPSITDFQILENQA
Method: (§1) Plates were washed five times in washing buffer (PBS containing 0.05% Tween 20) and blocked for 1 hour at 25° C. with 200 μl per well superblock blocking buffer (Thermo scientific, #37515). Blocking buffer was removed, and 2 μg/ml of each antibody or DVD-Ig molecule in PBS containing 10% superblock, 0.5% Tween-20 was added to the wells at 100 μl per well and incubated at 25° C. for 1 hour. The wells were washed five times in 1×PBST, and 1 μg/ml biotinylated antigen was titrated at 1:6 serial dilutions (for a range of μg to pg in PBS containing 10% superblock, 0.05% tween 20). Each dilution of antigen was then added to the plates and incubated for 1 hour at 25° C. The wells were washed five times in 1×PBST and incubated for 1 hour at 25° C. with polyHRP streptavidin (KPL #474-3000, Gaithersburg, Md.). The wells were washed five times in 1×PBST, and 100 μl of ULTRA-TMB ELISA (Pierce, Rockford, Ill.) were added per well. Following color development the reaction was stopped with 1N HCL and absorbance at 450 nm is measured.

Recombinant Human IL-1β [2] = molecular target: T2, Recombinant Human IL-1β (human, UniProt P01584 117-269); experiment: SPR (BIACORE), human antigen
T2 construct: Bought recombinant protein; Biotinylated in the capture ELISA; also called hIL-1β; IL-1 beta
Method: (§2) The BIACORE assay (Biacore, Inc, Piscataway, N.J.) determines the affinity of antibodies or DVD-Ig molecule with kinetic measurements of on-rate and off-rate constants. Binding of antibodies or DVD-Ig molecule to a target antigen (for example, a purified recombinant target antigen) is determined by surface plasmon resonance-based measurements with a Biacore® 1000 or 3000 instrument (Biacore® AB, Uppsala, Sweden) using running HBS-EP (10 mM HEPES [pH 7.4], 150 mM NaCl, 3 mM EDTA, and 0.005% surfactant P20) at 25° C. All chemicals are obtained from Biacore® AB (Uppsala, Sweden) or otherwise from a different source as described in the text. For example, approximately 5000 RU of goat anti-mouse IgG, (Fcγ), fragment specific polyclonal antibody (Pierce Biotechnology Inc, Rockford, Ill.) diluted in 10 mM sodium acetate (pH 4.5) is directly immobilized across a CM5 research grade biosensor chip using a standard amine coupling kit according to manufacturer's instructions and procedures at 25 μg/ml. Unreacted moieties on the biosensor surface are blocked with ethanolamine. Modified carboxymethyl dextran surface in flowcell 2 and 4 is used as a reaction surface. Unmodified carboxymethyl dextran without goat anti-mouse IgG in flow cell 1 and 3 is used as the reference surface. For kinetic analysis, rate equations derived from the 1:1 Langmuir binding model are fitted simultaneously to association and dissociation phases of all eight injections (using global fit analysis) with the use of Biaevaluation 4.0.1 software. Purified antibodies or DVD-Ig molecule are diluted in HEPES-buffered saline for capture across goat anti-mouse IgG specific reaction surfaces. Antibodies or DVD-Ig molecule to be captured as a ligand (25 μg/ml) are injected over reaction matrices at a flow rate of 5 μl/min. The association and dissociation rate constants, kₒₙ (M⁻¹s⁻¹) and koff (s⁻¹) are determined under a continuous flow rate of 25 μl/minute. Rate constants are derived by making kinetic binding measurements at different antigen concentrations ranging from 10-200 nM. The equilibrium dissociation constant (M) of the reaction between antibodies or DVD-Ig molecules and the target antigen is then calculated from the kinetic rate constants by the following formula: KD=koff/kₒₙ. Binding is recorded as a function of time and kinetic rate constants are calculated.

Recombinant Human IL-1α [3] = molecular target: T1, Recombinant Human IL-1α; experiment: SPR (BIACORE), human antigen
Method: as §2

Recombinant Human IL-1β [4] = molecular target: T2, Recombinant Human IL-1β; experiment: capture ELISA: DVD-Ig captured by anti-human Fc, biotinylated antigen titrated; N-terminal VD
Method: as §1

Recombinant Human IL-1β [5] = molecular target: T2, Recombinant Human IL-1β; experiment: cell-based or functional assay
Recombinant Human IL-1α [6] = molecular target: T1, Recombinant Human IL-1α; experiment: cell-based or functional assay
Cynomolgus IL-1α [7] = molecular target: T3, Cynomolgus IL-1α (cynomolgus, UniProt P79340 113-271, limits assumed); experiment: SPR (BIACORE), cynomolgus antigen
T3 construct: also called cyno IL-1α; cynomolgus IL-1 alpha
T3 sequence (looked up): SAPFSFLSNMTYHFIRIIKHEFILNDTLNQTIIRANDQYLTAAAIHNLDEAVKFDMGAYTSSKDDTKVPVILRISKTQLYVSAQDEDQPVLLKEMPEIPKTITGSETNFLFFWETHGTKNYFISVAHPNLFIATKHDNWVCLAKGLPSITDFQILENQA

Cynomolgus IL-1β [8] = molecular target: T4, Cynomolgus IL-1β (cynomolgus, UniProt P79182 117-268, limits assumed); experiment: SPR (BIACORE), cynomolgus antigen
T4 construct: also called cyno IL-1β; cynomolgus IL-1 beta
T4 sequence (looked up): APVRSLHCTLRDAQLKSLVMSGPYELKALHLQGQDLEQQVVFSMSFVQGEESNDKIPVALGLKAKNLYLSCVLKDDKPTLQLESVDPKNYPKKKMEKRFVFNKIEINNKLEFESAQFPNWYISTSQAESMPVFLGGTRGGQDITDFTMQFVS

Cynomolgus IL-1β [9] = molecular target: T4, Cynomolgus IL-1β; experiment: cell-based or functional assay
Cynomolgus IL-1α [10] = molecular target: T3, Cynomolgus IL-1α; experiment: cell-based or functional assay

EC50 (Recombinant Human IL-1α [1]): 9.9 pM
Kd (Recombinant Human IL-1β [2]): 626 pM
koff (Recombinant Human IL-1β [2]): 0.00184 s⁻¹
kon (Recombinant Human IL-1β [2]): 2.93e+06 M⁻¹ s⁻¹
Kd (Recombinant Human IL-1α [3]): < 17.8 pM
koff (Recombinant Human IL-1α [3]): < 1e-06 s⁻¹
kon (Recombinant Human IL-1α [3]): 56200 M⁻¹ s⁻¹
EC50 (Recombinant Human IL-1β [4]): 65.1 pM
Human IL-1β Neutralization Assay EC50 (IL-1 induced hIL-8, MRC-5 cells) (Recombinant Human IL-1β [5]): 2580 pM
Human IL-1α Neutralization Assay EC50 (IL-1 induced hIL-8, MRC-5 cells) (Recombinant Human IL-1α [6]): 64.8 pM
B1: 1B12.6-SS-3D12r16 (bispecific antibody, human IgG1, kappa)
heavy: EVQLVESGGGLVQPGGSLRLSCAVSGFTLSDYGVSWIRQAPGKGLEWLGLIWGGGDTYYNSPLKSRLTISKDNSKSTVYLQMNSLRAEDTAVYYCAKQRTLWGYDLYGMDYWGQGTLVTVSSASTKGPEVQLVQSGAEVKKPGASVKVSCKASGYTFKYYGMNWVRQAPGQGLERMGWINTYTGQSTYADDFKGRVTFTLDTSTSTAYMELSSLRSEDTAVYYCARDIYYYGSDFAMDYWGQGTTVTVSSASTKGPSVFPLAPSSKSTSGGTAALGCLVKDYFPEPVTVSWNSGALTSGVHTFPAVLQSSGLYSLSSVVTVPSSSLGTQTYICNVNHKPSNTKVDKKV[letters of human IgG1 Fc with changes not shown]
light: ETTVTQSPSSLSASVGDRVTITCITSTDIDVDMNWYQQKPGKPPKLLISQGNTLRPGVPSRFSSSGSGTDFTFTISSLQPEDFATYYCLQSDNLPLTFGQGTKLEIKRTVAAPDIQMTQSPSSLSASVGDRVTITCRASQDISNMLNWYQQKPGKAPKLLIYYTSRLKPGVPSRFSGSGSGTDYTFTISSLQPEDIATYFCQQGKTAPYTFGQGTKLEIKRTVAAPSVFIFPPSDEQLKSGTASVVCLLNNFYPREAKVQWKVDNALQSGNSQESVTEQDSKDSTYSLSSTLTLSKADYEKHKVYACEVTHQGLSSPVTKSFNRGEC
notes: DVD-Ig, outer domain anti-IL-1β, inner domain anti-IL-1α, short linkers

EC50 (Recombinant Human IL-1α [1]): 10.6 pM
Kd (Cynomolgus IL-1α [7]): 81.1 pM
koff (Cynomolgus IL-1α [7]): 8.23e-06 s⁻¹
kon (Cynomolgus IL-1α [7]): 101000 M⁻¹ s⁻¹
Kd (Cynomolgus IL-1β [8]): 20 pM
koff (Cynomolgus IL-1β [8]): 7.91e-06 s⁻¹
kon (Cynomolgus IL-1β [8]): 395000 M⁻¹ s⁻¹
Kd (Recombinant Human IL-1β [2]): 3.52 pM
koff (Recombinant Human IL-1β [2]): 4.11e-06 s⁻¹
kon (Recombinant Human IL-1β [2]): 1.17e+06 M⁻¹ s⁻¹
Kd (Recombinant Human IL-1α [3]): < 10 pM
koff (Recombinant Human IL-1α [3]): < 1e-06 s⁻¹
kon (Recombinant Human IL-1α [3]): 93600 M⁻¹ s⁻¹
EC50 (Recombinant Human IL-1β [4]): 6.3 pM
Cyno IL-1β Neutralization Assay EC50 (IL-1 induced hIL-8, MRC-5 cells) (Cynomolgus IL-1β [9]): 4 pM
Human IL-1β Neutralization Assay EC50 (IL-1 induced hIL-8, MRC-5 cells) (Recombinant Human IL-1β [5]): 2.9 pM
Cyno IL-1α Neutralization Assay EC50 (IL-1 induced hIL-8, MRC-5 cells) (Cynomolgus IL-1α [10]): 101 pM
Human IL-1α Neutralization Assay EC50 (IL-1 induced hIL-8, MRC-5 cells) (Recombinant Human IL-1α [6]): 35.5 pM
B2: E26.35-SS-3D12r16 (bispecific antibody, human IgG1, kappa)
heavy: EVQLVESGGGVVQPGRSLRLSCSASGFIFSRYDMSWVRQAPGKGLEWVAYISHGGAGTYYPDSVKGRFTISRDNSKNTLFLQMDSLRAEDTAVYYCARGGVYKGYFDVWGQGTPVTVSSASTKGPEVQLVQSGAEVKKPGASVKVSCKASGYTFKYYGMNWVRQAPGQGLERMGWINTYTGQSTYADDFKGRVTFTLDTSTSTAYMELSSLRSEDTAVYYCARDIYYYGSDFAMDYWGQGTTVTVSSASTKGPSVFPLAPSSKSTSGGTAALGCLVKDYFPEPVTVSWNSGALTSGVHTFPAVLQSSGLYSLSSVVTVPSSSLGTQTYICNVNHKPSNTKVDKKV[letters of human IgG1 Fc with changes not shown]
light: DIQMTQSPSSLSASVGDRVTITCRASGNIHNYLTWYQQTPGKAPKLLIYNAKTLADGVPSRFSGSGSGTDYTFTISSLQPEDIATYYCQHFWSIPYTFGQGTKLQITRTVAAPDIQMTQSPSSLSASVGDRVTITCRASQDISNMLNWYQQKPGKAPKLLIYYTSRLKPGVPSRFSGSGSGTDYTFTISSLQPEDIATYFCQQGKTAPYTFGQGTKLEIKRTVAAPSVFIFPPSDEQLKSGTASVVCLLNNFYPREAKVQWKVDNALQSGNSQESVTEQDSKDSTYSLSSTLTLSKADYEKHKVYACEVTHQGLSSPVTKSFNRGEC
notes: as for B1

— US20120189541A1 (AbbVie / Abbott, published 2012)
